The source of these data is PMC8662641, “Site-Specific Labeling of Endogenous Proteins Using CoLDR Chemistry” (Journal of the American Chemical Society, 2021).

This assay has as its system Mino cells. Kind of assay: Pull-down proteomics in Mino cells. Format: cell-based, human. The protocol:
The cells were lysed and “clicked” with biotin-azide, and the samples were incubated at room temperature for 1 h. The samples were then precipitated with methanol–chloroform (1 mL of methanol, 250 μL of chloroform, 750 μL of water), washed with 1 mL of methanol, and air-dried. The samples were solubilized, bound to streptavidin agarose beads in PBS for 3 h at 25 °C. The beads were washed, centrifuged, resuspended in Tris 50 mM pH 8, and transferred to a clean Eppendorf tube. After this, the bound proteins were eluted by boiling with 5% SDS then reduced with DTT, alkylated with iodoacetamide, and digested with trypsin. The samples were run on LC/MS/MS. The detailed procedure is available in the Supplementary Methods Section. […]
Pull-down proteomics experiments
1b or DMSO. The cells were spun down, washed with cold PBS and frozen. Then, each sample was lysed in 200 ul of RIPA for 15 minutes on ice and centrifuged at 20000 g at 4 °C. The protein in the supernatant was quantified using BCA. For each sample, […] of 1.65 mg/ml was prepared.
At this point, 5 ul of 5 mM biotin azide and 9 ul of 100 mM CuSO4:THPTA complex were added.
The click reaction was initiated by the addition of 7.5 ul of 150 mM sodium ascorbate, and the samples are incubated at room temperature for 1 hour. The samples were then precipitated with methanol: chloroform (1 ml methanol, 250 l chloroform, 750 l water), washed with 1 ml of methanol, and air dried. The dry pellet was resuspended in 1.2% SDS in PBS (250 l), sonicated as described before, and heated to 90 °C for 5 minutes. The samples were then diluted to 1.5 ml with PBS, and 50 ul of streptavidin agarose beads, prewashed with 0.2% SDS in PBS, were added, followed by 3 hour incubation at room temperature. Following the incubation, the beads were centrifuged 2 minutes 2000 g, and washed 4 times, with the following buffers (4 ml in each wash):
2% SDS; 0.1% sodium deoxycholate, 1% Triton X-100, 0.5 M NaCl, 1 mM EDTA, 50 mM HEPES pH = 7.5; 0.25 M NaCl, 0.5% IGEPAL, 0.5% sodium deoxycholate, 1 mM EDTA, 10 mM Tris pH = 8.1; 50 mM Tris pH = 7.4, 50 mM NaCl. The beads were then resuspended in Tris 50 mM pH = 8 and transferred to a clean Eppendorf tube.
At this point, the buffer was removed to leave a volume of 100 ul, and 100 ul of Tris 50 mM pH 8 + 10% SDS was added, and the samples were heated to 96 °C for 5 minutes. The samples were then centrifuged and the denatured, eluted proteins were transferred to new tubes. Then, 7.5 ul of 0.1 M DTT was added, and samples were incubated at 65 °C for 45 minutes. After the samples had cooled, 7.5 ul of iodoacetamide (0.2 M) were added, and the samples were incubated in the dark for 40 minutes at room temperature. At this point 1/10 volume of 12% phosphoric acid was added, and the samples were diluted 6-fold with 90% methanol + 50 mM ammonium bicarbonate. The samples were then loaded on s-trap micro columns (Protify) and the columns […]
were washed 3 times with 150 ul of 90% methanol + 50 mM ammonium bicarbonate. Then, 20 ul of 0.05 g/l of trypsin in 50 mM ammonium bicarbonate were added to the columns, and the samples were incubated at 47 °C for 90 minutes. Then 40 ul of 50 mM ammonium bicarbonate was added, followed by centrifugation and addition of 1 ul of 0.5 g/l trypsin to the eluate, which was incubated at 37C overnight. The column itself was then eluted using 40 ul of 0.2% formic acid and 40 ul 0.2% formic acid in 50% acetonitrile into a separate tube, which was kept at 4 °C. The two eluates were then combined and evaporated before running on LC/MS/MS.
Running samples on LC/MS/MS:
ULC/MS grade solvents were used for all chromatographic steps. Each sample was loaded using split-less nano-Ultra Performance Liquid Chromatography (10 kpsi nanoAcquity; Waters, Milford, MA, USA). The mobile phase was: A) H2O + 0.1% formic acid and B) acetonitrile + 0.1% formic acid. Desalting of the samples was performed online using a reversed-phase Symmetry C18 […]

Further values from the same series stand in other lists.

`C#CCCNC(=O)C(=C)CN1CCC[C@@H](n2nc(-c3ccc(Oc4ccccc4)cc3)c3c(N)ncnc32)C1` [1b]: the “Log2(fold enrichment)” value (ADK_HUMAN, 1b relative to pretreatment by ibrutinib) came out at 0.09623; the “Log2(fold enrichment)” value (ADK_HUMAN, 1b relative to treatment with DMSO) amounted to 5.473; the “Log2(fold enrichment)” value (BLK_HUMAN, 1b relative to pretreatment by ibrutinib) worked out at 6.825; the “Log2(fold enrichment)” value (BLK_HUMAN, 1b relative to treatment with DMSO) worked out at 6.253; the “Log2(fold enrichment)” value (BTK_HUMAN (protein group with EPH receptors), 1b relative to pretreatment by ibrutinib) is 9.649; the “Log2(fold enrichment)” value (BTK_HUMAN (protein group with EPH receptors), 1b relative to treatment with DMSO) is given as 9.407. In addition, the “Log2(fold enrichment)” value is, setting by setting: (LEG7_HUMAN, 1b relative to pretreatment by ibrutinib) -0.4255; (LEG7_HUMAN, 1b relative to treatment with DMSO) 0; (MCAT_HUMAN, 1b relative to pretreatment by ibrutinib) 0.4329; (MCAT_HUMAN, 1b relative to treatment with DMSO) 7.756.
